From PubChem BioAssay (Tox21)
The inconclusive results got no clear call from the source; some entries with a clear call stand among them for comparison. For some assays here: No potency is given beside an inconclusive call; the fits are too rough. Calls of active or inactive are those of the source. Unless noted, calls come from the whole dose curve; as a rule, active = well fitted curve in the direction sought with a large enough effect in the repeat runs; inconclusive = weak or mixed curves; inactive = no such curve, though single readings can be large; an effect the other way counts as inactive or inconclusive.

Tests used:
[1] = qHTS assay for identifying genotoxic compounds that show differential cytotoxicity against isogenic chicken DT40 cell lines with known DNA damage response pathways - wild type cell line (AID 743012); conditions: DT40 wild type chicken cells viability, CellTiter-Glo, 40 h; activity change, negative = cytotoxicity: at 68.4 µM (top of the series) unless noted; note: potency is the fitted concentration of half-maximal effect; nearly all actives have a fitted effect of over 60% in size
Summary of the method: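 Viability by ATP luminescence (CellTiter-Glo, 30 min RT) after 40 h compound treatment at 37 C/5% CO2, using 300 parental DNA repair-proficient DT40 cells per well.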

[2] = qHTS assay for identifying genotoxic compounds that show differential cytotoxicity against isogenic chicken DT40 cell lines with known DNA damage response pathways - Rad54/Ku70 mutant cell line (AID 743015); conditions: DT40 Rad54/Ku70 mutant viability, CellTiter-Glo, 40 h; activity change, negative = cytotoxicity: at 66.8 µM (top of the series) unless noted; note: potency is the fitted concentration of half-maximal effect; nearly all actives have a fitted effect of over 60% in size
[3] = target: Estrogen receptor (Homo sapiens) (UniProt P03372); experiment: qHTS assay to identify small molecule agonists of the estrogen receptor alpha (ER-alpha) signaling pathway using the BG1 cell line (AID 743079); conditions: BG1Luc4E2 cells, ERE-luciferase agonist, 22 h; activation: at 70.3 µM (top of the series) unless noted; note: % is set by controls: 0 for no effect and ±100 for the full control effect; nearly all actives have a fitted effect of over 20% in size
[4] = qHTS assay to identify small molecule antagonists of the peroxisome proliferator-activated receptor gamma (PPARg) signaling pathway - cell viability counter screen (AID 743194); conditions: PPARg-bla HEK293H viability, CellTiter-Glo luminescence, 17 h, co-treated with 50 nM rosiglitazone; activity change, negative = cytotoxicity: at 62.6 µM (top of the series) unless noted; note: potency is the fitted concentration of half-maximal effect; nearly all actives have a fitted effect of over 55% in size
Summary of the method: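 Cytotoxicity counter screen in PPARg-bla HEK293H cells, same wells as reporter assay. Compounds plus 50 nM rosiglitazone (final) for 17 h at 37 C, then viability read by CellTiter-Glo luminescence.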

[5] = qHTS assay for small molecule agonists of the antioxidant response element (ARE) signaling pathway (AID 743202; active = well fitted activation curve with a large enough effect in the signal ratio in the repeat runs, not every such curve was filed as active; inconclusive = weak or mixed curves, or effect the other way; inactive = no such curve, though single readings can be large or run the other way; the % refers to the signal ratio; note: % is set by controls: 0 for no effect and ±100 for the full control effect); conditions: HepG2 ARE-bla reporter, beta-lactamase FRET, 16 h; activation: at 73.3 µM (top of the series) unless noted
Summary of the method: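 HepG2 ARE-bla cells; 16 h treatment at 37 C; FRET-based beta-lactamase fluorescence read after 2 h substrate incubation at room temperature.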

[6] = Caspase-3/7 induction in HepG2 cells by small molecules, qHTS cell viability counter screen (AID 1346981); note: % is set by controls: 0 for no effect and ±100 for the full control effect; nearly all actives have a fitted effect of over 30% in size
Summary of the method: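 CellTiter-Fluor fluorescence measured viability in the same wells used for Caspase-Glo 3/7. HepG2 (wild type) at 2,000 cells/well were pre-incubated 5 hr, dosed, and given reagent at 16 hr, with 1 hr further at 37C.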

[7] = target: Cytochrome P450 2C9 (Homo sapiens) (UniProt P11712); experiment: Cytochrome P450 Family 2 Subfamily C Member 9 (CYP2C9) small molecule antagonists: luciferase reporter qHTS assay (AID 1671198); note: % is set by controls: 0 for no effect and ±100 for the full control effect; nearly all actives have a fitted effect of over 50% in size
Summary of the method: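 P450-Glo proluciferin substrate with CYP2C9 enzyme; 10 min RT preincubation, then NADPH regeneration 1 h at 37C; luciferin detection reagent 20 min RT, luminescence in relative luminescence units.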

[8] = target: Cytochrome P450 1A2 (Homo sapiens) (UniProt P05177); experiment: Cytochrome P450 Family 1 Subfamily A Member 2 (CYP1A2) small molecule antagonists: luciferase reporter qHTS assay (AID 1671199); note: potency is the fitted concentration of half-maximal effect; nearly all actives have a fitted effect of over 50% in size
Summary of the method: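 Luminescence from luciferin formed by CYP1A2 from a proluciferin substrate, read 20 min after detection reagent. Compound was pre-incubated 10 min with enzyme-substrate, and reaction started with NADPH regeneration solution for 1 h at room temperature; furafylline control.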

[9] = qHTS assay to identify small molecule antagonists of the progesterone receptor (PR) signaling pathway - cell viability counter screen (AID 1346798); note: % is set by controls: 0 for no effect and ±100 for the full control effect; nearly all actives have a fitted effect of over 50% in size
Summary of the method: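 CellTiter-Glo luminescence; PR-UAS-bla HEK293T, 3,000 cells/well; compound + R5020, 16 hr, 37C/5% CO2; 30 min RT before read.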

[10] = qHTS assay to identify small molecule antagonists of the TGF-beta/Smad signaling pathway (AID 1346924; active = well fitted inhibition curve with a large enough effect in the signal ratio in the repeat runs, not every such curve was filed as active; inconclusive = weak or mixed curves; the % refers to the signal ratio); conditions: SBE-bla HEK293T, TGF-beta/Smad reporter, beta-lactamase ratio; activity, negative = inhibition: at 76.8 µM (top of the series) unless noted
Summary of the method: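 Read-out was FRET-substrate fluorescence (405 nm excitation; 460 and 530 nm emission) after 2 h at room temperature. Before that, cells carrying a Smad-binding-element beta-lactamase reporter in HEK 293T had been stimulated 5 h at 37 C with TGF-beta1 (0.25 ng/mL addition solution) in the presence of test compound.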

[11] = Caspase-3/7 induction in HepG2 cells by small molecules, qHTS assay (AID 1346978); note: % is set by controls: 0 for no effect and ±100 for the full control effect; nearly all actives have a fitted effect of over 15% in size
Summary of the method: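 Wild-type HepG2 cells, 2,000/well, settled 5 hr at 37 C and 5% CO2, then compound-treated for 17 hr; caspase-3/7 activity read by luminescent Caspase-Glo 3/7 after 30 min at room temperature.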

[12] = target: Cytochrome P450 2C19 (Homo sapiens) (UniProt P33261); experiment: Cytochrome P450 Family 2 Subfamily C Member 19 (CYP2C19) small molecule antagonists: luciferase reporter qHTS assay (AID 1671197); note: potency is the fitted concentration of half-maximal effect; nearly all actives have a fitted effect of over 65% in size
Summary of the method: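 Relative luminescence units recorded 20 min after the detection reagent stopped a 1 h, 37C CYP2C19 reaction on proluciferin substrate, which was started by NADPH regeneration following 10 min room-temperature compound preincubation; ketoconazole positive control.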

[13] = qHTS assay to identify small molecule antagonists of the estrogen receptor alpha (ER-alpha) signaling pathway - cell viability counter screen (AID 743074; calls by dose curve;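 note: HEK293 cells carrying ER-alpha-UAS-bla reporter stimulated with 17beta-estradiol; potency is the fitted concentration of half-maximal effect; nearly all actives have a fitted effect of over 45% in size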)
[14] = qHTS assay to identify small molecule agonists of the farnesoid-X-receptor (FXR) signaling pathway - cell viability counter screen (AID 743218); conditions: FXR-bla HEK293T viability, CellTiter-Glo luminescence, 16 h; viability change, negative = cytotoxic: at 62.6 µM (top of the series) unless noted; note: % is set by controls: 0 for no effect and ±100 for the full control effect; nearly all actives have a fitted effect of over 45% in size
Summary of the method: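 Viability counter screen in the same wells: CellTiter-Glo luminescence, 30 min room-temperature incubation, measured after the beta-lactamase read. Cells were GeneBLAzer FXR-UAS-bla HEK 293T, compound-treated 16 h at 37C.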

[15] = Caspase-3/7 induction in CHO-K1 cells by small molecules, qHTS cell viability counter screen (AID 1346979); note: % is set by controls: 0 for no effect and ±100 for the full control effect; nearly all actives have a fitted effect of over 35% in size
Summary of the method: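 Viability readout by fluorescence (CellTiter-Fluor) on wild-type CHO-K1 cells exposed for 16hr at 37C and 5% CO2 to compounds delivered in DMSO; reagent incubated 1hr before reading.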
Tags give direction and shape of the fitted curve.

Sequence of UniProt P11712 (P11712 whole entry, looked up): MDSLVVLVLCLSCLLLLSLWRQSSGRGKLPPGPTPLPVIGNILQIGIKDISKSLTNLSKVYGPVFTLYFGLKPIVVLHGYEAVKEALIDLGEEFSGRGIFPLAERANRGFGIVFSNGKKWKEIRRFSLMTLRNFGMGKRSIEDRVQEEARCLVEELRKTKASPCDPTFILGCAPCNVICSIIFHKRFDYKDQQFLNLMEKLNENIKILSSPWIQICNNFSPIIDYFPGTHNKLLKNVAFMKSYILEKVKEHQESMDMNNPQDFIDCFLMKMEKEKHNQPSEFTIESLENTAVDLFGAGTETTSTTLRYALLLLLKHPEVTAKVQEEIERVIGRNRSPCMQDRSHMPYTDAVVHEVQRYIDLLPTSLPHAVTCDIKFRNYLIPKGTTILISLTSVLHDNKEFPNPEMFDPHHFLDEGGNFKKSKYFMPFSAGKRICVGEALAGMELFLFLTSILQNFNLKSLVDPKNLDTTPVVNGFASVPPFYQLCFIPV
Sequence of UniProt P03372 (P03372 whole entry, looked up): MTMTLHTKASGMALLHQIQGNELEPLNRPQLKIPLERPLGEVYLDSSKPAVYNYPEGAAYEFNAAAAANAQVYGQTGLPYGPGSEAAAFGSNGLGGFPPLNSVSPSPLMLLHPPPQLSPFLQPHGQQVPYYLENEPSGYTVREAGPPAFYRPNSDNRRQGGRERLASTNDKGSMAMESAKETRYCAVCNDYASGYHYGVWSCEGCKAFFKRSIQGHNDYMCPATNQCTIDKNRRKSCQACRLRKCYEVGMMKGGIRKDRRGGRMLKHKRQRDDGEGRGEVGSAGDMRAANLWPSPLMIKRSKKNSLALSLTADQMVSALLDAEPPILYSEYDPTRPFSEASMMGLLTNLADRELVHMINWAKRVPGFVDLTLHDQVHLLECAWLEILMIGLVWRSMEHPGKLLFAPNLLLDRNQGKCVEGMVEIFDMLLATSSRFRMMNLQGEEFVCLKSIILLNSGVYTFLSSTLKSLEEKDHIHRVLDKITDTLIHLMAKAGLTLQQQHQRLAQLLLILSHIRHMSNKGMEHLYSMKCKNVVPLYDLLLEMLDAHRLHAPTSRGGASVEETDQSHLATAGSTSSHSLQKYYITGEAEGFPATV
Sequence of UniProt P05177 (P05177 whole entry, looked up): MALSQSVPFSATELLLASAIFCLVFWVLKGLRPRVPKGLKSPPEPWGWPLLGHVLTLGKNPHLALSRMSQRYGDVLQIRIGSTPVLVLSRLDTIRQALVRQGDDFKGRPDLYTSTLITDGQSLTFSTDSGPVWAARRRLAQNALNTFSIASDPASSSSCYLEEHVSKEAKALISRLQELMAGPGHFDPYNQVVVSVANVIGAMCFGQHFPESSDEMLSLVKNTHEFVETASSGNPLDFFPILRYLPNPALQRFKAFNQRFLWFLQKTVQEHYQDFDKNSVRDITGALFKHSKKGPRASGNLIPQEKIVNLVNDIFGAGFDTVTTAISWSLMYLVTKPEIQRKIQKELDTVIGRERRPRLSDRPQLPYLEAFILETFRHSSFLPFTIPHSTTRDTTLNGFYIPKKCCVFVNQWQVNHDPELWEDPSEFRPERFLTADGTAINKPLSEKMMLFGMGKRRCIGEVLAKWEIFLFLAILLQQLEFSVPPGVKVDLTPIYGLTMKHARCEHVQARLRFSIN
Sequence of UniProt P33261 (P33261 whole entry, looked up): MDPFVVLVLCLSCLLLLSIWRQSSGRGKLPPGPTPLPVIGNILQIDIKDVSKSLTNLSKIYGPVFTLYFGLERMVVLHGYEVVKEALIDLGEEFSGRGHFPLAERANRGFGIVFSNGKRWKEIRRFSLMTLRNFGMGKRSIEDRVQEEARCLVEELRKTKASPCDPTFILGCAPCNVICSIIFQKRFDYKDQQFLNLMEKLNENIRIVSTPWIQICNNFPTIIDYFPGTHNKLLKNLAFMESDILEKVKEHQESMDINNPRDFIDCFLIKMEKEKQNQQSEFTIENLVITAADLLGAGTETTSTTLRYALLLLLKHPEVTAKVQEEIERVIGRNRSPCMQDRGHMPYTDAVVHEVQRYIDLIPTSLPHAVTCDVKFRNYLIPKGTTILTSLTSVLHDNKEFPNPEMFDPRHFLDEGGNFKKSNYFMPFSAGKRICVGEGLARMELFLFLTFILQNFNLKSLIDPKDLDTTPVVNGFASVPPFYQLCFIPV

For `C=C(C)[C@@H]1CC=C(C)CC1`, which Potency [1] is on record?
The Potency was inconclusive [cytotoxic, single point].

What about the Potency [2] of the same molecule?
The Potency was inconclusive [cytotoxic, single point].

And the activation [3]?
Its activation is inconclusive: 2.07% [phenotype inactive].

What about the Potency [4] of the same molecule?
Its Potency is inconclusive [rising, full curve, poor fit].

And the activation [5]?
Its activation is inconclusive: 28.2%.

What about the Potency [6] of the same molecule?
Its Potency is “inactive”.

What about the Potency [7] of the same molecule?
The Potency was “inactive”.

What about the Potency [8] of the same molecule?
Its Potency is inconclusive [inhibitor, partial curve, poor fit].

With `O=C1OCc2ccccc21` as the molecule, how does the Potency [9] read?
The Potency was “inactive”.

And the activity, negative = inhibition [10]?
The activity, negative = inhibition was inconclusive: 1.57%.

What about the Potency [11] of the same molecule?
Its Potency is “inactive”.

And the Potency [12]?
The Potency was inconclusive [inhibitor, single point].

And the Potency [7]?
Its Potency is “inactive”.

For `C=CC(=O)CCCCC`, which Potency [13] is on record?
The Potency was inconclusive [rising, full curve, poor fit].

What about the Potency [5] of the same molecule?
Its Potency is “inactive”.

What about the Potency [14] of the same molecule?
Its Potency is “inactive”.

What about the Potency [15] of the same molecule?
Its Potency is “inactive”.
